The test system of series [1] is rhesus monkeys. The experiment in a line: Intravenous self-administration (reinforcing potential). As to conditions: initial dose-finding study, one monkey, 34.8 mg/kg iv bolus.
Series [2] addresses rat neuronal α7 receptors (Rattus norvegicus, UniProt Q05941). The experiment in a line: Whole cell current, acutely dissociated rat hippocampal interneurons. It is filed as cell-based. As to conditions: rat hippocampal neuron.
Series [3] is described as follows: Modified Irwin screen. Format: in vivo. As to conditions: in vivo; rat, oral; read-out: NOAEL, Irwin screen / CNS function.
In series [4] the test system is rats. The experiment in a line: Modified Irwin screen. The following applies: rat. Format: in vivo.
Series [5] has as its target α7 receptor (Rattus norvegicus, UniProt Q05941). The experiment in a line: Hippocampal slice fEPSP, PPF. Format: cell-based. As to conditions: 5 μM.
A short description of series [6]: Protein binding. It is filed as in vitro ADME. As to conditions: across species including human; 21.6 to 21.630 ng/mL (0.1 to 100 μM).
Series [7] deals with T1, human recombinant α7 receptor (Homo sapiens, UniProt P36544). The experiment in a line: [125I]-α-bungarotoxin (BTX) binding, α7-HEK membranes. Set-up: expressed in transfected cells; host or cells: Xenopus oocytes (mRNA injected).
The subject of series [8] is α7 receptors. The experiment in a line: In vitro activation of α7 receptors (recombinant and native preparations). Format: cell-based, human, or mouse. As to conditions: recombinant receptors in oocytes or HEK cells, native rat neurons, brain slices.
Series [9] is described as follows: Mass balance of [14C]-AZD0328 in rats. As to conditions: rat, in vivo, 2.16 mg/kg; fed rats, single and multiple oral doses (solution). How it is done:
In the mass balance study conducted in fed rats, a Tmax of 0.5 h to 1 h was observed following single and multiple oral doses (solution). The bioavailability of AZD0328 (total radioactivity) in this study was >90%. […] Generally speaking, the elimination was complete within the 24-hour interval at the dose levels tested.
Pharmacokinetics and mass balance of [^14C]-AZD0328 were investigated in rats. The excretion of [^14C]-AZD0328-derived radioactivity in rats was mainly through the kidney. Over the course of the study, radioactivity recovered in urine and feces accounted for approximately 85% and 8%, respectively.

In series [10] the test system is α7 receptor. The experiment in a line: Hippocampal slice fEPSP, PPF. It is filed as cell-based. As to conditions: marmoset hippocampal slice, 5 μM.
In series [11] the test system is marmoset monkeys. The experiment in a line: Behavioral effects / tolerability in marmosets. The following applies: im. Format: in vivo.
For series [12], the target named is T1, human recombinant α7 receptor. The experiment in a line: Whole cell current, Xenopus oocytes. Format: cell-based. Set-up: expressed in transfected cells; host or cells: Xenopus oocytes (mRNA injected). As to conditions: oocyte.
The nature of series [13]: 1 month repeated-dose oral toxicity in the rat. The following applies: both sexes, in vivo, 1-month rat toxicity study, read-out: NOAEL for renal tubule vacuolation.

Bounds are passed on as bounds.

As usually defined, the EC50 is the concentration that produces a half-maximal response. One may read the fraction unbound as free concentration divided by total concentration. A higher fraction unbound goes with weak binding. Broadly, the Ki is the dissociation constant of the complex between target and ligand, obtained from inhibition or displacement. For orientation: Tmax means the time at which the peak concentration occurs.

Turning to `c1cnc2c(c1)C[C@@]1(CN3CCC1CC3)O2` [AZD0328, (R)-Spiro[1-azabicyclo[2.2.2]octane-3,2′(3′H)-furo[2,3-b]pyridine]], the mortality result in series [1] is “died within minutes”; in series [4] (oral gavage, 259.5 mg/kg), 259.5 mg/kg 1 of 6 animals died. The values for the EC50 in series [2] and in [12] (human recombinant α7) were 400 nM and 1900 nM, respectively. The Emax came out at 97% in series [2] (read-out: Maximum Response, whole cell current) and 70% in series [12] (human recombinant α7, 10 μM, % of maximum acetylcholine response). The NOAEL in series [3] turned out to be 64.9 mg/kg. Further, the “dose with sedation, reduced traction response, lacrimation and salivation” value in series [4] (in vivo, po) is recorded as “salivation at 194.7 mg/kg. At”. Also, the “dose after which sedation was observed” value in series [4] (oral gavage, up to 4 h postdose) is reported as 129.8 mg/kg up to 4 h postdose. The figures for the “fEPSP PPF” value in series [5] and in series [10] were 121 % control P2:P1 and 123 % control P2:P1, respectively. The same molecule gave a fraction unbound in [6] of over 0.85. In series [7], the Ki was determined as 3 nM. Further, the “concentration necessary to evoke any detectable activation of α7 receptors” value in series [8] is reported as “greater than 100 nM”. Besides, in series [9], the Tmax lay in the range of 30 to 60 min. Further, the “dose after which one animal defecated” value in series [11] (marmoset) is “One animal defecated after 0.01 mg/kg”. In addition, the “doses after which salivation, vomiting, scratching, defecation and increased activity were observed” value in series [11] (marmosets) is recorded as “administration with 0.03-3 mg/kg”. The NOAEL at 1 month in series [13] came out at 2.2 mg/kg.

The values are drawn from patent US20080242688A1, “Method 741” (ASTRAZENECA AB, priority 2007, published 2008).
